Measurements published in the supplement of paper PMC10369915.
This is one part of the list. Rule as the data show it: active = 3.2 or more and inactive = the rest. The signal is at background level for most entries.

Legend:
Assay in all cases: enrichment score (SH2-bound / input frequency) (ratio); bacterial display of known human phosphotyrosine sites (pTyr-Var adds point mutants) read by sequencing; higher = stronger binding; tyrosines were phosphorylated by kinases first
Conditions in all cases: peptide library: pTyr-Var
[1] = molecular target: SHP2 C-SH2 domain E139D
[2] = molecular target: SHP2 C-SH2 domain wild-type
[3] = molecular target: SHP2 N-SH2 domain L43F
[4] = molecular target: SHP2 N-SH2 domain T42A
[5] = molecular target: SHP2 N-SH2 domain T52S
[6] = molecular target: SHP2 N-SH2 domain wild-type

Measured: enrichment score
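Also: displayed peptides selected on beads carrying the immobilized SH2 domain, with library peptides lacking any tyrosine serving as negative controls.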

B1: IARS1_Y680 (peptide)
chain: EIEFLYNENTV
inactive: [1] 0.764 | [2] 0.745 | [3] 0.688 | [4] 0.666 | [5] 0.801 | [6] 0.594

B2: IDH1_Y135_R132L_YF (peptide)
chain: IGLHAYGDQFR
inactive: [1] 0.874 | [2] 0.857 | [3] 0.913 | [4] 0.77 | [5] 0.838 | [6] 1.14

B3: IDH1_Y135_R132H (peptide)
chain: IGHHAYGDQYR
inactive: [1] 2.32 | [2] 1.84 | [3] 1.91 | [4] 1.9 | [5] 1.85 | [6] 1.61

B4: IARS1_Y680_T684M (peptide)
chain: EIEFLYNENMV
inactive: [1] 1.12 | [2] 0.952 | [3] 0.651 | [4] 0.754 | [5] 0.733 | [6] 0.765

B5: IDH1_Y135_R132C (peptide)
chain: IGCHAYGDQYR
inactive: [1] 1.02 | [2] 1.42 | [3] 0.921 | [4] 1.01 | [5] 0.923 | [6] 1.46

B6: IDH1_Y135_R132S_YF (peptide)
chain: IGSHAYGDQFR
inactive: [1] 0.733 | [2] 0.64 | [3] 0.828 | [4] 0.63 | [5] 0.773 | [6] 0.794

B7: ICAM3_Y527 (peptide)
chain: REESTYLPLTS
inactive: [1] 0.563 | [2] 0.803 | [3] 0.783 | [4] 0.839 | [5] 0.603 | [6] 0.789

B8: IBTK_Y1064 (peptide)
chain: AKVKPYVNGTS
inactive: [1] 0.979 | [2] 1.15 | [3] 0.879 | [4] 1.06 | [5] 0.8 | [6] 0.831

B9: IARS2_Y231_F227S_YF (peptide)
chain: TSFQMYDKGLV
inactive: [1] 0.741 | [2] 0.52 | [3] 0.842 | [4] 0.508 | [5] 0.607 | [6] 0.603

B10: IDH1_Y135_YF (peptide)
chain: IGRHAYGDQFR
inactive: [1] 0.92 | [2] 0.791 | [3] 0.955 | [4] 0.766 | [5] 0.941 | [6] 1.19

B11: IDH1_Y135_R132S (peptide)
chain: IGSHAYGDQYR
inactive: [1] 0.702 | [2] 0.675 | [3] 0.655 | [4] 0.548 | [5] 0.598 | [6] 0.757

B12: IARS2_Y231_F227S (peptide)
chain: TSYQMYDKGLV
inactive: [1] 0.693 | [2] 0.722 | [3] 0.81 | [4] 0.926 | [5] 0.752 | [6] 0.718

B13: ICAM2_Y260 (peptide)
chain: QRMGTYGVRAA
inactive: [1] 0.587 | [2] 0.638 | [3] 0.663 | [4] 0.539 | [5] 0.575 | [6] 0.78

B14: IDH1_Y135_R132H_YF (peptide)
chain: IGHHAYGDQFR
inactive: [1] 1.68 | [2] 1.42 | [3] 1.42 | [4] 1.5 | [5] 1.69 | [6] 1.58

B15: HYDIN_Y1072 (peptide)
chain: ILKPDYQPLAI
inactive: [1] 1.33 | [2] 0.988 | [3] 1.12 | [4] 0.721 | [5] 1.02 | [6] 1.14

B16: IDH1_Y135_R132L (peptide)
chain: IGLHAYGDQYR
inactive: [1] 0.816 | [2] 0.891 | [3] 0.847 | [4] 0.816 | [5] 0.792 | [6] 0.909

B17: IARS1_Y434 (peptide)
chain: NNDLCYWVPEL
inactive: [1] 1.03 | [2] 1 | [3] 0.899 | [4] 0.877 | [5] 0.849 | [6] 1.11

B18: IARS2_Y231 (peptide)
chain: TFYQMYDKGLV
inactive: [1] 0.969 | [2] 1.04 | [3] 0.982 | [4] 0.92 | [5] 1.06 | [6] 0.938

B19: HYDIN_Y4610_N4606K (peptide)
chain: KKILCYIQGGS
inactive: [1] 0.957 | [2] 1.19 | [3] 0.912 | [4] 0.961 | [5] 0.824 | [6] 1.13
